Experimental data reported in the supplement of paper PMC11417369.
This is one part of the list.

Test system: PF3D7_0420300 AP2 domain 1 (GST-tagged)
Assay: gcPBM binding intensity (ln(normalized median fluorescence intensity)); higher = stronger DNA binding
Method in brief: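 Binding intensity is defined as the maximum Masliner-normalised natural-log median intensity across replicate spots for either probe orientation. It was measured on an Agilent 4 × 180k array of primer-extended double-stranded 36-bp intergenic genomic probes and negative controls, to which GST-tagged P. falciparum DNA-binding domains made in E. coli were applied for 1 h in 1× PBS with 1% milk, 0.2 mg/ml BSA, 0.5% salmon testes DNA and 0.03% Triton X-100. Detection was by Alexa488 anti-GST antibody and scanning at 488 nm.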

| Sequence | gcPBM binding intensity (ln) |
| --- | --- |
| GTAACATTTTAAATATATACATATAATGTATTTATA [GTGCAC_negctrl_site344] | 9.09 |
| ATATATATATTATGGGGTACAAACATCAAAAGATTT [XGTACX_site3944] | 9.31 |
| ATTAATTAAAAGGGAACACATAGAAATTATAAAACA [GTGCAC_negctrl_site420] | 9.66 |
| ATTAAACCGTGGGAGCACACACACACACACACACAT [TGCATGCA_negctrl_site72] | 10.8 |
| TGTTGTATCAATTTTTGTACATAACACATATGTATA [XGTACX_site3666] | 9.25 |
| TATAAAAGATTGGAATGTACATAAGAAAAAAATATA [XGTACX_site5028] | 9.41 |
| TGTGTAGGGGATATTCTACTTTAAAAATAAATATAT [CACACA_negctrl_site207] | 9.16 |
| TTCAAGATTTATTATACACACATATTAATATTTATA [CACACA_site6413] | 9.34 |
| GGCCCAACTTCTTCTGACGAAAACGTAAATTGTGTG [XGTACX_negctrl_site533] | 9.22 |
| AATCATATTAGTATGGTGCAACATATATAAATATAT | 9.15 |
| TTATTTTCCCTTTGTGCATGCAGTTTACTTTTTGTG [TGCATGCA_site993] | 9.7 |
| ACACATATATTAAATGTGCACTGAAATATGCATATA [GTGCAC_site9936] | 9.27 |
| ACTTGTAAGAGACACACACACACACGGATATAAATA [CACACA_site6517] | 10.1 |
| CAAAATAAAAATAACACACACATTTATTTATATACA [CACACA_site6679] | 9.77 |
| ATATATGTATATTTATGTACGTATTCCTGTATAGTC [XGTACX_site5763] | 9.43 |
| GGAAAAAAAAATAAATGTACGAATTAACATATCAAA [XGTACX_site5653] | 9.23 |
| ACACAAGCACACAAATGTACATATATATATATATAT [XGTACX_site5146] | 9.37 |
| TTATTCATTTTTATTTGTACATAATTATATGAAATT [XGTACX_site6389] | 9.19 |
| TTTTATATTTTATGCACACTTATAAGAAATATGTAC [CACACA_site3040] | 9.24 |
| TATTTATTAAAACACACACACACACCCACAAAATAA [CACACA_site241] | 10.1 |
| TTATGTATTCATTTTTTTTAAGCACCCCAAAATGAT [CACACA_negctrl_site1344] | 9.01 |
| ATAATATATATATAAACACACAAAAAAAATTATATA [CACACA_site1534] | 9.74 |
| ATTTTTTTTTATGATACACACTTGGATAATTAAAAC [CACACA_site4473] | 9.31 |

| Sequence | gcPBM binding intensity (ln) |
| --- | --- |
| ATTCTATTATAATACACACCCAAATATTAAAAAGAT [CACACA_site2960] | 9.73 |
| CCACATGATATGATTACACACATATATATATTTACA [CACACA_site164] | 9.66 |
| TATTATATATATATATGTACATATATATGCTAAAAA [XGTACX_site5297] | 9.15 |
| GATGTTGCAAAATTCTGTACATATAAATGTATACAT [XGTACX_site5009] | 9.28 |
| CAAAATGTTTCTCATTGTACACAAAATAAATGTCCT [XGTACX_site6798] | 9.04 |
| TAATGAATTTAAATTTTAAAATTAATAAAAAAAATA [TGCATGCA_negctrl_site15] | 8.89 |
| ATACATATGTATATTTGTACATATTAGACAATCTTA [XGTACX_site6706] | 9.04 |
| ACATTTACAAGGAAAGTGCATATAAGAAAAATAAAA [GTGCAC_site9587] | 9.24 |
| ATTAGTAAATTTATATGTACACATTGTTATTTTATA [XGTACX_site1177] | 9.38 |
| TATTAATATGGTAATACACACTAATATACTTTTGTT [CACACA_site6860] | 9.46 |
| ATATATATATATATATGTACGTATTCATAAACAACA [XGTACX_site4282] | 9.32 |
| TTTAATGTTACTCCTTGTACACAAAATAGTGTTATA [XGTACX_site8416] | 9.2 |
| CTGTAAAAAATATAAACACACATAGAGATATATAAA [CACACA_site6292] | 9.73 |
| TAAGTATATTTTATATGTACTTATATATTTAATTTT [XGTACX_site4615] | 8.91 |
| CAAGCTTTTTCCTTTACACACATTAGTTATTTATAT [CACACA_site6781] | 9.75 |
| ATAGGTTCCCAAAATGCACACCAATGAAATTATTTA [CACACA_site8081] | 9.21 |
| ATATTATTTTAAAGTACACACATATATTAAGATATA [CACACA_site5306] | 9.47 |
| TATTTTATATTTTATGCACACTTATAAGAAATATGT [CACACA_site5647] | 9.19 |
| ATGATTTCACAAGACACACACATACAAATTTATATA [CACACA_site3909] | 9.64 |
| CAGTATTACATGAGGACACACACAAAAAAAATATAT [CACACA_site8156] | 9.88 |
| TTAATATATTATCTGGTGCATAAACACGTTATACCT | 9.19 |
| ATAATGAAAACAAGCACACATACATAAAATAAAATA [CACACA_site3257] | 9.86 |
| ATGGAAGGATAATAAAAACCTTTACCTTTCTGTTTA [GTGCAC_negctrl_site380] | 9.08 |

| Sequence | gcPBM binding intensity (ln) |
| --- | --- |
| ATAAATTTTTAAACAGCACACATAAATATAATATAT [CACACA_site8691] | 9.58 |
| AATATTACAATTTGGTGTACAGGTGCACATGCCTCA [XGTACX_site1730] | 9.26 |
| TCTACAATTTTAATTACACACTATAAAAAAGAAAGA [CACACA_site5624] | 9.35 |
| TAGCTTATAAGATATGCACACACAACACTTACAAAA [CACACA_site8174] | 9.67 |
| AACAAATAAAAAAAAATAAAAATAAAAATAAAAAAA [XGTACX_negctrl_site451] | 9.33 |
| TTTAAAATTATAAGGATTAAAAAAAAAAAAAATAAA [CACACA_negctrl_site114] | 9.06 |
| TTATTTATGAAGTATACACACAATATAGATTTATAT [CACACA_site6703] | 9.33 |
| AAGAATTATATTAATAGTACATATATATTAATTTAT [XGTACX_site5713] | 9.08 |
| TTTTGTTATTATAAATAGTAACATTTGTGAATATAT [TGCATGCA_negctrl_site132] | 8.92 |
| AAGACATTTTTTTGTTGTACGTCTTCATTTATTGTA [XGTACX_site2890] | 9.48 |
| ATACTCACGAAACACACACACAATATATATATATAT [CACACA_site4136] | 9.84 |
| TTTATATTTCTTCATCGTACACATAAAAAAAAAAAA [XGTACX_site3244] | 8.9 |
| TTTTATATTTTAAGAGTGCATTTTATATCTTTTTCT | 9.21 |
| GAAAATATTAAATGAAGTACAATATTTATGTTACTT [XGTACX_site8737] | 9.19 |
| ATAATAACTGATAAATGTACATATAAATTTTATGAT [XGTACX_site195] | 9.43 |
| ATAATTTAAAAACATTGTACATTAATATATATGTAT [XGTACX_site8970] | 9.12 |
| AGGATATGCGGACACACACACATATATATATATATA [CACACA_site5247] | 9.79 |
| AATATATATTTGTGTACACATTATATATATATATAT [CACACA_site6103] | 9.32 |
| AATCTCAGAATATACTGTACTTTAAGAAAAAAAAAA [XGTACX_site110] | 8.8 |
| AAAATTTAAATAGGAAGTACGTTCACTAAGAAAATA [XGTACX_site6546] | 9.37 |
| AAATAAAGATATATATATATATATATATATAATTTT [CACACA_negctrl_site30] | 9.11 |
| CATAAATCAGCCATAACACACATACCTATATACATA [CACACA_site6324] | 9.65 |
| AAAATGTGCATATTTGCACACTTCAATATATATATA [CACACA_site1791] | 9.22 |

| Sequence | gcPBM binding intensity (ln) |
| --- | --- |
| AAATATTTTGCATACACATGCAAATATTTTTTACAT [TGCATGCA_site554] | 9.16 |
| AATATAAAAAGGCACACACACAAAAAAAAAAAAAAA [CACACA_site896] | 9.78 |
| TGAAAGAATGTTAATAGTACACACAATTATTATATA [XGTACX_site7936] | 9.36 |
| ATTGATATTGTATAATGTACAGGAAAAAAAAAAAAA [XGTACX_site526] | 9.1 |
| TAAGAACTATTCAGTAGTACCTATATGGATTACTAA [XGTACX_site4278] | 8.87 |
| TTCTTTATTTTTTCTACACACATTATGTATTCAAAG [CACACA_site3527] | 9.88 |
| TGAAAGAACCTGATTACACACATAAGTTATAAATAT [CACACA_site6165] | 9.51 |
| CAGGTGCACTATATTACACACGCTTCTTTTTTTTTA [CACACA_site2069] | 9.64 |
| TTGATATTATTGTATAAACATAATAGAGATAAAGAG [TGCATGCA_negctrl_site455] | 9.35 |
| TACAAAAAAATAAATAATAAAAAAAAATATATATAA [XGTACX_negctrl_site344] | 9.33 |
| TGAAGGATATATTCCGTGCACATATAAATATATACA | 9.18 |
| AACATGTTAACTAAATGTACACACCTATGTTGATGT [XGTACX_site3777] | 9.45 |
| GGAAAACACAAAAACTGTACATTTATTCAACATATA [XGTACX_site5831] | 9.32 |
| TATATACATATATACACACACATATATATATATATA [CACACA_site2805] | 9.6 |
| ATTTCTAAATGTTGGTGTACGTTTTTTTATAACCTT [XGTACX_site1752] | 9.58 |
| ATTATTTAAAAAAAATGTACATAATAAATATGAACG [XGTACX_site4010] | 9.02 |
| AATAAATGGAATGTCACACATATATATATATATATA [CACACA_site4869] | 9.17 |
| AGTGTATGTATATAAACACACATACATATTTATAAC [CACACA_site6777] | 9.48 |
| AAAAAAAAGAAAGAAAGTACAAATTATAAAATGAAC [XGTACX_site860] | 9.71 |
| TAAATTAAAAAACACACACACAAAAAAAAAAAAAAA [CACACA_site2263] | 10 |
